# Measurements taken from PubChem BioAssay AID1745853 (National Center for Advancing Translational Sciences (NCATS), 2022).
# Some of the results follow. Further columns of the screen follow, without active or inactive calls.
# What was measured:
# Assay in all cases: Primary Screen for Target Class Profiling of Small Molecule Inhibitors of Methyltransferases
# [1] = biological target: Glycine N-methyltransferase (Homo sapiens) (UniProt Q14749); conditions: purified enzyme, MTase-Glo SAH luminescence; measured here: GNMT inhibition; at 40 µM; stronger effect = lower value
# In short: (§1)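 Each enzyme was assayed with SAM and its substrate. SAH formation detected by MTase-Glo luminescence; single-point 40 uM screen[…].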
# [2] = biological target: Guanidinoacetate N-methyltransferase (Homo sapiens) (UniProt Q14353); conditions: purified enzyme, MTase-Glo SAH luminescence; measured here: GAMT inhibition; at 40 µM; stronger effect = lower value
# In short: as §1
# [3] = biological target: Histamine N-methyltransferase (Homo sapiens) (UniProt P50135); conditions: purified enzyme, MTase-Glo SAH luminescence; measured here: HNMT inhibition; at 40 µM; stronger effect = lower value
# In short: as §1
# [4] = biological target: Nicotinamide N-methyltransferase (Homo sapiens) (UniProt P40261); conditions: purified enzyme, MTase-Glo SAH luminescence; measured here: NNMT inhibition; at 40 µM; stronger effect = lower value
# In short: as §1
# [5] = biological target: Phenylethanolamine N-methyltransferase (Homo sapiens) (UniProt P11086); conditions: purified enzyme, MTase-Glo SAH luminescence; measured here: PNMT inhibition; at 40 µM; stronger effect = lower value
# In short: as §1
# % is scaled to controls: 0 for no effect and ±100 for the full control effect.
SMILES,"activity change, negative = inhibition [1]","activity change, negative = inhibition [2]","activity change, negative = inhibition [3]","activity change, negative = inhibition [4]","activity change, negative = inhibition [5]"
COc1cccc(CN2C(=O)c3cc4c(OC)ccc(OC)c4n3CC2(C)C(=O)NC2CCCCCC2)c1 (stereo not drawn),32.7%,0%,-7.67%,-22.5%,-12%
O=C(Nc1cccc(Nc2cc(Nc3cccc(C(F)(F)F)c3)ncn2)c1)C1CC1,,-41%,,-76.9%,-62%
COc1ccc(CCN(C)CCCOc2nsc(-c3ccccc3)n2)cc1OC,-9.72%,11.8%,-65.2%,-29.3%,-2.74%
CC(=C\C(C)O)/C=C(\C)C(=O)CC1CC(CC(N)=O)CC(=O)O1 (stereo not drawn),0%,7.34%,9.12%,-5.49%,6.33%
CCc1nc(-c2c3n(c(=O)n(CC(=O)NCc4cccc(OC)c4)c2=O)CCCC3)no1,-0.981%,-1.71%,-0.92%,-3.53%,-4.48%
CC1CCCC(NC(=O)C2(C)Cn3c(nc4ccccc43)C(=O)N2Cc2ccc(F)cc2)C1C (stereo not drawn),3.51%,2.15%,5.12%,-2.29%,1.76%
O=C(c1ccccn1)N1C[C@@H]2C[C@H](C1)c1ccc(NS(=O)(=O)Cc3ccccc3)c(=O)n1C2,-5.93%,-7.91%,-3.9%,-6.65%,-8.28%
O=C(NCc1cccc(C(F)(F)F)c1)c1nn(CCOc2ccccc2)c2c1CNCC2,-1.42%,-2.94%,-18.8%,-3.63%,-6.64%
CC(C)CCN1C(=O)CC[C@]2(C(=O)NCc3cccs3)CCCC[C@@H]12,-1.05%,1.52%,1.25%,-5.74%,1.24%
Cc1cccc2nc(CNC(=O)c3cccc(C4CCNC4)c3)cn12 (stereo not drawn),-2.23%,0.272%,-13%,-0.026%,-4.85%
CCn1nccc1C(=O)N1CCCC(c2nnc(CN3CCCC3)n2C)C1 (stereo not drawn),-5.17%,-14.7%,-5.45%,-18.4%,-16.3%
COc1ccc(-c2n[nH]n3c2nc(=O)c2ccc(C(=O)NCCc4ccc(Cl)cc4)cc23)cc1,-6.05%,1.05%,3.41%,-18.2%,-7.4%
Cc1ccccc1C(=O)N1CC/C(=N\OS(=O)(=O)O)c2ccc(Cl)cc21,-4.92%,5.21%,-0.512%,-21%,-8.05%
COc1ccc(OC)c(S(=O)(=O)N2CCC[C@H](n3c(=O)n(C)c4cccnc43)C2)c1,-7.94%,3.13%,-3.88%,-9.17%,-0.81%
CCOc1ccc(CN2C(=O)c3nc4ccccc4n3CC2(C)C(=O)NC2CCC(C)CC2)cc1 (stereo not drawn),-8.48%,0.304%,-0.912%,-4.44%,-2.19%
COC(=O)C1=C[C@@H](O)[C@@H](O)[C@H](O[C@@H]2O[C@H](CO)[C@@H](O)[C@H](O)[C@H]2OC(=O)/C=C/c2ccccc2)C1,0%,1%,5.16%,-14.8%,5.55%
Cc1cc(CN2CCC3(CC2)CC(c2ccccc2)C(=O)N(C2CC2)C3)on1 (stereo not drawn),0.885%,0.3%,2.62%,0.707%,4.47%
CCCn1cc(-c2ccnc(NCc3c(F)ccc(C)c3F)n2)c(C)n1,-9.02%,-6.84%,-10.3%,-19.7%,-2.65%
O=C(/C=C/c1ccc(O)cc1)OC[C@@]1(O)C=C[C@@H]2C(C(=O)O)=CO[C@@H](O[C@@H]3O[C@H](CO)[C@@H](O)[C@H](O)[C@H]3O)[C@@H]21,-8.26%,-13.3%,3.79%,-24.4%,-0.99%
O=C(CCn1ccc2cc(S(=O)(=O)N3CCCCC3)ccc21)N1CCN(c2ccccc2F)CC1,3.98%,-2.89%,-0.157%,-3.93%,-3.64%
O=c1[nH]c2ccccc2n1Cc1ccccc1Cl,-13.7%,1.77%,-13.5%,-3.95%,4.13%
COc1cc(O)cc(C)c1C(=O)OC1C(CO)OC(OC2C(O)C(O)C(O)C(O)C2O)C(O)C1O (stereo not drawn),2.12%,5.65%,-3.94%,-4.16%,7.23%
COC(=O)c1ncn2c1C(=O)N(c1cc(C)ccc1C)C(C)(C(=O)NCCCOC(C)C)C2 (stereo not drawn),-2.11%,0.231%,1.77%,0.606%,0.136%
CCOc1ccc(N2C(=O)c3cc(-c4ccco4)nn3CC2(C)C(=O)NC2CCCCC2)cc1 (stereo not drawn),-5.96%,-0.428%,0.591%,-2.87%,-1.15%
Cc1ccc(NC(=O)CSc2nnc3n(C)c(=O)c4ccc(C(=O)NC5CCCC5)cc4n23)c(C)c1,-2.63%,1.66%,-15.2%,-2.53%,11.6%
O=C(NCc1ccc2c(c1)OCO2)c1ccc2c(=O)nc3c(-c4ccccc4F)n[nH]n3c2c1,-14.8%,1.79%,-3.69%,-8.7%,-4.3%
CCCNC(=O)N1CCn2cccc2C1C(C)C (stereo not drawn),8.85%,0%,0.905%,1.46%,3.04%
CCc1ccc(CNC(=O)CN2C(=O)NC3(CCOCC3)C2=O)cc1,0.827%,-0.811%,2.08%,-6.75%,0.527%
Cc1ccccc1CSc1nnc2n(Cc3ccccc3)c(=O)c3ccccc3n12,1.95%,0.186%,1.74%,-1.7%,1.4%
